Measured values reported in the supplement of paper PMC8728848.
The other results are listed elsewhere or left out.

Assays:
Experiment in all cases: glycan array binding signal (z-score within array); higher = stronger binding
Conditions in all cases: glycan notation: IUPAC condensed, linker removed
[1] = molecular target: Gal(b1-3)GlcNAc(b1-3)Gal(b1-4)GlcNAc(b1-2)[Gal(b1-3)GlcNAc(b1-3)Gal(b1-4)GlcNAc(b1-6)]Man(a1-6)[Gal(b1-3)GlcNAc(b1-3)Gal(b1-4)GlcNAc(b1-2)Man(a1-3)]Man(b1-4)GlcNAc(b1-4)[Fuc(a1-6)]GlcNAc
Summary of the method: (§1)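 From the Consortium for Functional Glycomics database, 3228 arrays were curated, keeping only those whose protein sequence was available. Binding is given as a within-array Z-score averaged across arrays sharing a protein sequence and across linkers. Negative Z-scores can be read as non-binding.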

[2] = molecular target: Gal(b1-3)GlcNAc(b1-3)Gal(b1-4)GlcNAc(b1-3)Gal(b1-4)GlcNAc(b1-2)[Gal(b1-3)GlcNAc(b1-3)Gal(b1-4)GlcNAc(b1-3)Gal(b1-4)GlcNAc(b1-6)]Man(a1-6)[Gal(b1-3)GlcNAc(b1-3)Gal(b1-4)GlcNAc(b1-3)Gal(b1-4)GlcNAc(b1-2)Man(a1-3)]Man(b1-4)GlcNAc(b1-4)[Fuc(a1-6)]GlcNAc
Summary of the method: as §1

[3] = molecular target: Gal(b1-3)GlcNAc(b1-3)Gal(b1-4)GlcNAc(b1-6)[Gal(b1-3)GlcNAc(b1-3)]Gal(b1-4)Glc
Summary of the method: as §1

[4] = molecular target: Gal(b1-3)GlcNAc(b1-3)Gal(b1-4)[Fuc(a1-3)]GlcNAc
Summary of the method: as §1

[5] = molecular target: Gal(b1-3)GlcNAc(b1-3)Gal(b1-4)[Fuc(a1-3)]GlcNAc(b1-6)[Gal(b1-3)GlcNAc(b1-3)]Gal(b1-4)Glc
Summary of the method: as §1

[6] = molecular target: Gal(b1-3)GlcNAc(b1-3)GalNAc
Summary of the method: as §1

[7] = molecular target: Gal(b1-3)GlcNAc(b1-6)Gal(b1-4)GlcNAc
Summary of the method: as §1

[8] = molecular target: Gal(b1-3)GlcNAc(b1-6)GalNAc
Summary of the method: as §1

[9] = molecular target: Gal(b1-3)GlcNAc(b1-6)[Gal(b1-3)]GalNAc
Summary of the method: as §1

[10] = molecular target: Gal(b1-3)GlcNAc6S
Summary of the method: as §1

[11] = molecular target: Gal(b1-3)[Fuc(a1-4)]GlcNAc
Summary of the method: as §1

[12] = molecular target: Gal(b1-3)[Fuc(a1-4)]GlcNAc(b1-2)Man
Summary of the method: as §1

[13] = molecular target: Gal(b1-3)[Fuc(a1-4)]GlcNAc(b1-2)Man(a1-3)[Gal(b1-3)[Fuc(a1-4)]GlcNAc(b1-2)Man(a1-6)]Man(b1-4)GlcNAc(b1-4)[Fuc(a1-6)]GlcNAc
Summary of the method: as §1

[14] = molecular target: Gal(b1-3)[Fuc(a1-4)]GlcNAc(b1-3)Gal(b1-3)[Fuc(a1-4)]GlcNAc
Summary of the method: as §1

[15] = molecular target: Gal(b1-3)[Fuc(a1-4)]GlcNAc(b1-3)Gal(b1-4)[Fuc(a1-3)]GlcNAc
Summary of the method: as §1

[16] = molecular target: Gal(b1-3)[Fuc(a1-4)]GlcNAc(b1-6)GalNAc
Summary of the method: as §1

[17] = molecular target: Gal(b1-3)[GlcNAc(b1-6)]GalNAc
Summary of the method: as §1

[18] = molecular target: Gal(b1-3)[Neu5Ac(a2-6)]GalNAc
Summary of the method: as §1

[19] = molecular target: Gal(b1-3)[Neu5Ac(a2-6)]GlcNAc(b1-4)Gal(b1-4)Glc
Summary of the method: as §1

[20] = molecular target: Gal(b1-3)[Neu5Ac(b2-6)]GalNAc
Summary of the method: as §1

[21] = molecular target: Gal(b1-4)Gal
Summary of the method: as §1

[22] = molecular target: Gal(b1-4)GalNAc(a1-3)[Fuc(a1-2)]Gal(b1-4)GlcNAc
Summary of the method: as §1

[23] = molecular target: Gal(b1-4)GalNAc(b1-3)[Fuc(a1-2)]Gal(b1-4)GlcNAc
Summary of the method: as §1

[24] = molecular target: Gal(b1-4)Glc
Summary of the method: as §1

[25] = molecular target: Gal(b1-4)Glc6S
Summary of the method: as §1

[26] = molecular target: Gal(b1-4)GlcNAc
Summary of the method: as §1

[27] = molecular target: Gal(b1-4)GlcNAc(a1-6)Gal(b1-4)GlcNAc
Summary of the method: as §1

[28] = molecular target: Gal(b1-4)GlcNAc(b1-2)Man
Summary of the method: as §1

[29] = molecular target: Gal(b1-4)GlcNAc(b1-2)Man(a1-3)Man(b1-4)GlcNAc(b1-4)GlcNAc
Summary of the method: as §1

[30] = molecular target: Gal(b1-4)GlcNAc(b1-2)Man(a1-3)[Gal(b1-4)GlcNAc(b1-2)Man(a1-6)]Man(b1-4)GlcNAc(b1-4)GlcNAc
Summary of the method: as §1

[31] = molecular target: Gal(b1-4)GlcNAc(b1-2)Man(a1-3)[Gal(b1-4)GlcNAc(b1-2)Man(a1-6)]Man(b1-4)GlcNAc(b1-4)[Fuc(a1-6)]GlcNAc
Summary of the method: as §1

[32] = molecular target: Gal(b1-4)GlcNAc(b1-2)Man(a1-3)[Gal(b1-4)GlcNAc(b1-2)Man(a1-6)][Gal(b1-4)GlcNAc(b1-4)]Man(b1-4)GlcNAc(b1-4)[Fuc(a1-6)]GlcNAc
Summary of the method: as §1

[33] = molecular target: Gal(b1-4)GlcNAc(b1-2)Man(a1-3)[Gal(b1-4)GlcNAc(b1-2)Man(a1-6)][GlcNAc(b1-4)]Man(b1-4)GlcNAc(b1-4)[Fuc(a1-6)]GlcNAc
Summary of the method: as §1

[34] = molecular target: Gal(b1-4)GlcNAc(b1-2)Man(a1-3)[GlcNAc(b1-2)Man(a1-6)]Man(b1-4)GlcNAc(b1-4)GlcNAc
Summary of the method: as §1

[35] = molecular target: Gal(b1-4)GlcNAc(b1-2)Man(a1-3)[GlcNAc(b1-4)][Gal(b1-4)GlcNAc(b1-2)Man(a1-6)]Man(b1-4)GlcNAc(b1-4)GlcNAc
Summary of the method: as §1

[36] = molecular target: Gal(b1-4)GlcNAc(b1-2)Man(a1-3)[Man(a1-6)]Man(b1-4)GlcNAc(b1-4)GlcNAc
Summary of the method: as §1

[37] = molecular target: Gal(b1-4)GlcNAc(b1-2)Man(a1-6)Man(b1-4)GlcNAc(b1-4)GlcNAc
Summary of the method: as §1

[38] = molecular target: Gal(b1-4)GlcNAc(b1-2)Man(a1-6)[GlcNAc(b1-2)Man(a1-3)]Man(b1-4)GlcNAc(b1-4)GlcNAc
Summary of the method: as §1

B1: PX9961V-pdi-562-26-562 (Parabacteroides distasonis) (protein)
chain: EIFSEITTDNYYQNSNNIYAALVNNYAKAFSTGWSDARYFLQEVTADQLMIPTRGKHGYNGGEYVRLHEHKWTVEENFVYNGWAAPFQGIALCNNTLSDFENLDFSTFKLTEETKNEYIAELRALRVWNYMFLIDFFRHVPIVTDIEEVKAQSTPLEVFNFMESELLAILPDLPKNRGVSRFDQAGVASILVRLYLNAEKWIGISKYDECEQMAQAILDGKYGEYSIDPDYRGPFRSGINGYRSKENIMEFAIKKNYFEASWLYNMWMHYQDRYSLDNDWQGWNGGNLAPSRDLYGNLYQDKLGMPFEKFPDGDIRKKAFRVISNDGDYEGFFLMGTQYKFDYEKGYGFTDEVITGTEEYNGKPLVYVDQVGRFSEGETGLAKGSHVIYGEENTGYRLIKFPWLPQSKDLFQMNSIPEIRLAEIYYSLAECKYRSGDKIGAARLLDVVRKRYYKAEDWSKFSYESNISKLTDDEFVDELGREFIGERHRRIDLIRWNRFSEGAWWDKTPDATNQDVFPIPYRALNANPLLKQTTAGF
**Q.** For B1, which “glycan array binding signal (z-score)” value [1] is on record?
**A.** 1.65

**Q.** What about the “glycan array binding signal (z-score)” value [2] of the same binder?
**A.** 4.46

**Q.** And the “glycan array binding signal (z-score)” value [3]?
**A.** -0.3

**Q.** And the “glycan array binding signal (z-score)” value [4]?
**A.** -0.281

**Q.** And the “glycan array binding signal (z-score)” value [5]?
**A.** -0.831

**Q.** And the “glycan array binding signal (z-score)” value [6]?
**A.** 0.925

**Q.** What about the “glycan array binding signal (z-score)” value [7] of the same binder?
**A.** -0.485

**Q.** And the “glycan array binding signal (z-score)” value [8]?
**A.** -0.064

**Q.** And the “glycan array binding signal (z-score)” value [9]?
**A.** 0.643

**Q.** And the “glycan array binding signal (z-score)” value [10]?
**A.** -0.396

**Q.** What about the “glycan array binding signal (z-score)” value [11] of the same binder?
**A.** -0.252

**Q.** And the “glycan array binding signal (z-score)” value [12]?
**A.** 0.083

**Q.** What about the “glycan array binding signal (z-score)” value [13] of the same binder?
**A.** 1.25

**Q.** And the “glycan array binding signal (z-score)” value [14]?
**A.** 0.256

**Q.** What about the “glycan array binding signal (z-score)” value [15] of the same binder?
**A.** -0.394

**Q.** And the “glycan array binding signal (z-score)” value [16]?
**A.** 6.13

**Q.** What about the “glycan array binding signal (z-score)” value [17] of the same binder?
**A.** -0.026

**Q.** And the “glycan array binding signal (z-score)” value [18]?
**A.** -0.358

**Q.** And the “glycan array binding signal (z-score)” value [19]?
**A.** -0.295

**Q.** What about the “glycan array binding signal (z-score)” value [20] of the same binder?
**A.** -0.399

**Q.** And the “glycan array binding signal (z-score)” value [21]?
**A.** -0.112

**Q.** What about the “glycan array binding signal (z-score)” value [22] of the same binder?
**A.** -0.842

**Q.** What about the “glycan array binding signal (z-score)” value [23] of the same binder?
**A.** -0.377

**Q.** And the “glycan array binding signal (z-score)” value [24]?
**A.** -0.606

**Q.** What about the “glycan array binding signal (z-score)” value [25] of the same binder?
**A.** -0.159

**Q.** What about the “glycan array binding signal (z-score)” value [26] of the same binder?
**A.** -0.082

**Q.** What about the “glycan array binding signal (z-score)” value [27] of the same binder?
**A.** -0.52

**Q.** And the “glycan array binding signal (z-score)” value [28]?
**A.** -0.109

**Q.** What about the “glycan array binding signal (z-score)” value [29] of the same binder?
**A.** -0.492

**Q.** What about the “glycan array binding signal (z-score)” value [30] of the same binder?
**A.** -0.221

**Q.** What about the “glycan array binding signal (z-score)” value [31] of the same binder?
**A.** -0.101

**Q.** And the “glycan array binding signal (z-score)” value [32]?
**A.** -0.645

**Q.** And the “glycan array binding signal (z-score)” value [33]?
**A.** -0.74

**Q.** And the “glycan array binding signal (z-score)” value [34]?
**A.** -0.368

**Q.** And the “glycan array binding signal (z-score)” value [35]?
**A.** 1.53

**Q.** And the “glycan array binding signal (z-score)” value [36]?
**A.** -0.16

**Q.** And the “glycan array binding signal (z-score)” value [37]?
**A.** 0.439

**Q.** And the “glycan array binding signal (z-score)” value [38]?
**A.** 0.185
